These results are taken from the BET-seq Pho4 binding data (Le et al. 2018).

Some of the results follow. The energies were worked out here from pooled read counts, against the library average; single values are noisy.

This assay addresses T1, Pho4 (S. cerevisiae) (UniProt P07270).
T1 sequence: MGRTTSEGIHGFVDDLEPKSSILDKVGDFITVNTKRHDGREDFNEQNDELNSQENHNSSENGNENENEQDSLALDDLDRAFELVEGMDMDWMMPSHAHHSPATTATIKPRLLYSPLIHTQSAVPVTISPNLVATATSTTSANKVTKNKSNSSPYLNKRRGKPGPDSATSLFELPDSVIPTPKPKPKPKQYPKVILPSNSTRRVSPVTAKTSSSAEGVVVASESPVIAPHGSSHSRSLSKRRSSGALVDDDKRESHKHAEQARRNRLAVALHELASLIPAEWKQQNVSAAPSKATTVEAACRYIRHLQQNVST
The experiment in a line: relative binding free energy (BET-seq); higher = weaker binding. To be noted: reference: library average.
Regarding GGTATCACGTGGGTAG, the “relative binding free energy” value was -0.04 kcal/mol.
With TTGGGCACGTGTTGGC, the “relative binding free energy” value was -0.03 kcal/mol.
With TACTGCACGTGGGTAA, the “relative binding free energy” value is -0.13 kcal/mol.
As for AGCGTCACGTGGGGAA, the “relative binding free energy” value was -0.05 kcal/mol.
As to TAGGGCACGTGGGATG, the “relative binding free energy” value was -0.2 kcal/mol.
Turning to TCGGGCACGTGGGCTA, the “relative binding free energy” value is -0.27 kcal/mol.
The result for GTAGTCACGTGGTTTG reads 0.13 kcal/mol; that for AGTTTCACGTGGGTTT, 0.2 kcal/mol; that for TATATCACGTGATCTT, 0.02 kcal/mol.
In the case of AGATTCACGTGGTCGT, the “relative binding free energy” value is 0.15 kcal/mol.
Then GAGGTCACGTGTGCAG, with 0.03 kcal/mol.
The result for GGTGGCACGTGGTATC reads -0.07 kcal/mol.
Then GTATTCACGTGTTCTT, with 0.11 kcal/mol.
TAAGTCACGTGGGTTT: the “relative binding free energy” value is -0.02 kcal/mol.
AGGGCCACGTGGTAGG: the “relative binding free energy” value is -0.11 kcal/mol.
On to TGGGGCACGTGAAATC, for which the “relative binding free energy” value amounted to 0.19 kcal/mol.
Consider GATGGCACGTGTTAGT, for which the “relative binding free energy” value is -0.09 kcal/mol.
Take ACATTCACGTGATGGG: the “relative binding free energy” value was 0.31 kcal/mol.
The result for CAATTCACGTGGGGTA reads 0.21 kcal/mol; that for TTAAACACGTGATTGT, 0.05 kcal/mol; that for TAAGTCACGTGATTTC, 0.31 kcal/mol.
Regarding CTGTCCACGTGGAGGT, the “relative binding free energy” value was 0.02 kcal/mol.
The result for TACGGCACGTGTTTGG reads -0.14 kcal/mol; that for GGGTACACGTGCGGTG, 0.05 kcal/mol; that for GGGAGCACGTGGTATC, -0.05 kcal/mol.
In the case of CAGGTCACGTGGGGTC, the “relative binding free energy” value came to 0.04 kcal/mol.
Then TGTTTCACGTGAGTAA, with 0.43 kcal/mol; and TATGGCACGTGTCTGG, with -0.11 kcal/mol.
As to TAGGGCACGTGCGAGG, the “relative binding free energy” value is -0.18 kcal/mol.
Consider AGGGTCACGTGTGCCT, for which the “relative binding free energy” value amounted to 0.07 kcal/mol.
The result for GGATACACGTGTTTCG reads 0.03 kcal/mol.
TTTCACACGTGGGGTC: the “relative binding free energy” value was 0.1 kcal/mol.
As to TTGGTCACGTGAGAAG, the “relative binding free energy” value is 0.37 kcal/mol.
For the sequence TATTGCACGTGATTGG, the “relative binding free energy” value was 0.12 kcal/mol.
Consider CGGTCCACGTGGGGCG, for which the “relative binding free energy” value is -0.06 kcal/mol.
For GCATACACGTGTGTTT, the “relative binding free energy” value was 0.11 kcal/mol.
As to CTGTTCACGTGGTGGA, the “relative binding free energy” value was determined as 0.18 kcal/mol.
The result for ATTTGCACGTGTGGTC reads 0.22 kcal/mol; that for GGTGCCACGTGTATAT, 0 kcal/mol; that for GCTGTCACGTGGCAGG, 0.23 kcal/mol.
Regarding TTATTCACGTGTGCCT, the “relative binding free energy” value stood at 0.21 kcal/mol.
With ATTAACACGTGTTAGA, the “relative binding free energy” value was 0.01 kcal/mol.
As for AGAGGCACGTGGTAAT, the “relative binding free energy” value is -0.22 kcal/mol.
Then GAGTTCACGTGGTTCT, with 0.36 kcal/mol; and GGGATCACGTGTTTGC, with 0.14 kcal/mol.
As for GTAGTCACGTGGTGCG, the “relative binding free energy” value came to 0.02 kcal/mol.
Take GCTTTCACGTGGGATT: the “relative binding free energy” value is 0.17 kcal/mol.
Take TGTTTCACGTGAGAAG: the “relative binding free energy” value came out at 0.33 kcal/mol.
Turning to TGGGACACGTGGTCTT, the “relative binding free energy” value is -0.02 kcal/mol.
For TAGTACACGTGTGGTT, the “relative binding free energy” value was determined as 0.2 kcal/mol.
Regarding TTTGGCACGTGGAGTT, the “relative binding free energy” value was -0.07 kcal/mol.
Regarding GTATTCACGTGGATTG, the “relative binding free energy” value is 0.34 kcal/mol.
For GCGATCACGTGGGCGG, the “relative binding free energy” value came to 0 kcal/mol.
Then TACTACACGTGGGGTA, with -0.17 kcal/mol; and CGGGGCACGTGGATAG, with 0.05 kcal/mol.
With TGCCTCACGTGTGAGT, the “relative binding free energy” value stood at 0.36 kcal/mol.
With CGCGTCACGTGGGGAT, the “relative binding free energy” value was -0.11 kcal/mol.
With TATAACACGTGGTGAG, the “relative binding free energy” value is -0.12 kcal/mol.
With TTATGCACGTGAGTGT, the “relative binding free energy” value is 0.18 kcal/mol.
For the sequence TGTGTCACGTGGAGTA, the “relative binding free energy” value is -0.1 kcal/mol.
As for TCTGGCACGTGCGGGT, the “relative binding free energy” value was -0.18 kcal/mol.
As for ATTGGCACGTGCGGAG, the “relative binding free energy” value is -0.23 kcal/mol.
Then TTGGGCACGTGTATGG, with 0.01 kcal/mol.
The result for CAATTCACGTGTGTCT reads 0.34 kcal/mol.
Consider CGGTTCACGTGTAGGA, for which the “relative binding free energy” value turned out to be 0.27 kcal/mol.
As for TTTTGCACGTGATAAT, the “relative binding free energy” value was determined as 0.1 kcal/mol.
For AAAGTCACGTGCGTGT, the “relative binding free energy” value is 0.03 kcal/mol.
Take AGGAGCACGTGGTCTT: the “relative binding free energy” value is -0.15 kcal/mol.
For the sequence CAGTGCACGTGTATAT, the “relative binding free energy” value was found to be 0.03 kcal/mol.
GGTGTCACGTGGTGCA: the “relative binding free energy” value was -0.05 kcal/mol.
For the sequence TATGCCACGTGGGGAG, the “relative binding free energy” value is -0.32 kcal/mol.
Then GAGTGCACGTGTTTGA, with -0.07 kcal/mol.
Consider TGAGTCACGTGTTGGG, for which the “relative binding free energy” value worked out at 0.21 kcal/mol.
Take TCGAGCACGTGTTGTG: the “relative binding free energy” value was -0.1 kcal/mol.
For GGTCACACGTGGGATG, the “relative binding free energy” value amounted to 0.1 kcal/mol.
As for CATGTCACGTGCGTGA, the “relative binding free energy” value came out at 0.14 kcal/mol.
For GATAGCACGTGAGGTA, the “relative binding free energy” value is -0.01 kcal/mol.
With TGAGCCACGTGGAAGT, the “relative binding free energy” value was found to be 0 kcal/mol.
As to CGTTTCACGTGTTAAA, the “relative binding free energy” value is 0.23 kcal/mol.
The result for TAGAGCACGTGTCGGG reads -0.04 kcal/mol; that for ACCGGCACGTGGAGTG, -0.07 kcal/mol; that for AAGTGCACGTGTTAGT, -0.08 kcal/mol.
For the sequence TTTGACACGTGGATCG, the “relative binding free energy” value turned out to be 0.01 kcal/mol.
For TTCATCACGTGGTAGT, the “relative binding free energy” value came to 0.12 kcal/mol.
The result for GGCTTCACGTGTAGAG reads 0.21 kcal/mol; that for TATGTCACGTGAGTGA, 0.09 kcal/mol; that for GTATCCACGTGATGGG, 0.15 kcal/mol.
For ATGTGCACGTGTCATG, the “relative binding free energy” value was -0.05 kcal/mol.
Regarding AATGTCACGTGGGGTT, the “relative binding free energy” value turned out to be 0.03 kcal/mol.
Turning to AAATTCACGTGCTTGG, the “relative binding free energy” value turned out to be 0.26 kcal/mol.
With GTATGCACGTGTGTGG, the “relative binding free energy” value stood at 0.05 kcal/mol.
With GGTTGCACGTGAAATT, the “relative binding free energy” value is 0.37 kcal/mol.
Take TATGTCACGTGCAATT: the “relative binding free energy” value is 0.19 kcal/mol.
Turning to GTCTACACGTGTGTGT, the “relative binding free energy” value turned out to be 0.21 kcal/mol.
Consider GTTTGCACGTGGAGAT, for which the “relative binding free energy” value turned out to be 0.16 kcal/mol.
In the case of GTGTGCACGTGTTTAT, the “relative binding free energy” value worked out at 0.09 kcal/mol.
The result for TACTACACGTGTGTTG reads 0.1 kcal/mol; that for AGTTACACGTGATTTT, 0.23 kcal/mol; that for GTCGGCACGTGTGTCG, 0.02 kcal/mol.
As for TAGGGCACGTGAATCG, the “relative binding free energy” value amounted to 0.04 kcal/mol.
For the sequence ATGGTCACGTGATAAG, the “relative binding free energy” value was 0.14 kcal/mol.
Consider GCGAGCACGTGTGAGT, for which the “relative binding free energy” value was -0.04 kcal/mol.
With GGATGCACGTGTCGTG, the “relative binding free energy” value came to 0.12 kcal/mol.
For GGGTGCACGTGGTGAA, the “relative binding free energy” value was -0.1 kcal/mol.
Turning to GTGTACACGTGCTCGG, the “relative binding free energy” value was found to be 0.06 kcal/mol.
As to GTGGTCACGTGAAGTC, the “relative binding free energy” value stood at 0.17 kcal/mol.
Turning to TGGGACACGTGCGTCG, the “relative binding free energy” value was -0.15 kcal/mol.
The result for ATGACCACGTGTTGGG reads -0.01 kcal/mol; that for GGGACCACGTGGATGA, 0.25 kcal/mol.
For the sequence TGACGCACGTGTGTTC, the “relative binding free energy” value amounted to 0.03 kcal/mol.
Take GGTGTCACGTGTCCGT: the “relative binding free energy” value was 0.22 kcal/mol.
On to GGGTTCACGTGTGTTT, for which the “relative binding free energy” value came to 0.37 kcal/mol.
For GGGTTCACGTGCGATG, the “relative binding free energy” value was 0.18 kcal/mol.
Then CATGACACGTGTTGGT, with 0.03 kcal/mol; and ATGGTCACGTGGAAAT, with 0.13 kcal/mol.
